# From paper PMC5233801
# These are yes or no findings as the source states them, for the method shown. Some binding calls cover weakened binding; strength is not graded here. Tags and fused reporters may be left off the sequences shown.
# T1: SQUAMOSA PROMOTER BINDING PROTEIN-LIKE9 (SPL9) fused to GAL4 DNA-binding domain (Arabidopsis thaliana) (UniProt Q700W2)
# T1 sequence: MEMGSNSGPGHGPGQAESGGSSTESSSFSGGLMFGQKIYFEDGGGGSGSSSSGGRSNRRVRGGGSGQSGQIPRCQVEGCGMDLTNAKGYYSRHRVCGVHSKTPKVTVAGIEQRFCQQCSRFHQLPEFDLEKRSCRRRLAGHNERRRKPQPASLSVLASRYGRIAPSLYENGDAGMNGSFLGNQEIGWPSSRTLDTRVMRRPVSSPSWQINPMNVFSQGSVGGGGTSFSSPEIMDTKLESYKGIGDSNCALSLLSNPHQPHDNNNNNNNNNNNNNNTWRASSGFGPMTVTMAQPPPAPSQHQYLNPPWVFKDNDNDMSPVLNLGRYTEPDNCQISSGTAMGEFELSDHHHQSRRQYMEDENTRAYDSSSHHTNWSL
# T2: SPL3 fused to GAL4 DNA-binding domain (Arabidopsis thaliana) (UniProt P93015)
# T2 sequence: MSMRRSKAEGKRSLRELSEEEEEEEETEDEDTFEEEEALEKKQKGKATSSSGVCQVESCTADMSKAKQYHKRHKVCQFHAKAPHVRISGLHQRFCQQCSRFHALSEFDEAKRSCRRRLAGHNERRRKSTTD
# T3: SPL2 fused to GAL4 DNA-binding domain (Arabidopsis thaliana) (UniProt Q9S840)
# T3 sequence: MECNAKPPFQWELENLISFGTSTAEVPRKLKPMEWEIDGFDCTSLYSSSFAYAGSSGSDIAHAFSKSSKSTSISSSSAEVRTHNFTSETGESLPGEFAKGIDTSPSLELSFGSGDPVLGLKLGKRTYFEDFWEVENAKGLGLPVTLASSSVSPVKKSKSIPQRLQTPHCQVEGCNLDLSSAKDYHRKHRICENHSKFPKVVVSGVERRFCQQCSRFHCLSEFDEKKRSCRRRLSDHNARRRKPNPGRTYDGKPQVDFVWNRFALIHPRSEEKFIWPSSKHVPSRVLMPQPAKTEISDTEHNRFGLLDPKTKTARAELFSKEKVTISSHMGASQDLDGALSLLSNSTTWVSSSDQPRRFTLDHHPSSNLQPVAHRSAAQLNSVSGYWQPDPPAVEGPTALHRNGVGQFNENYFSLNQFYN
# T4: JAZ3 in the JAZ3-SPL9/pBridge construct (Arabidopsis thaliana) (UniProt Q9LVI4)
# T4 sequence: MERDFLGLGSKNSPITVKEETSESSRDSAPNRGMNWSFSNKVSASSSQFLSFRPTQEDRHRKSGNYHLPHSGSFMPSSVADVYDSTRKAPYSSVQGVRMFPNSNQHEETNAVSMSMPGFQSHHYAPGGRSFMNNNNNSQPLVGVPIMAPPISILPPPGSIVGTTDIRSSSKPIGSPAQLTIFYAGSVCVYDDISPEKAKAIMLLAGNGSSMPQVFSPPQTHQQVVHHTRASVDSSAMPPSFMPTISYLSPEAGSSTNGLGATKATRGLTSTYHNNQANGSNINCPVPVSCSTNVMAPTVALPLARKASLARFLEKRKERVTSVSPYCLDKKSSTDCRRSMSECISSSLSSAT
# B1: CORONATINE …1 (COI1) fused to GAL4 activation domain (protein, UniProt O04197 1-592)
# chain: MEDPDIKRCKLSCVATVDDVIEQVMTYITDPKDRDSASLVCRRWFKIDSETREHVTMALCYTATPDRLSRRFPNLRSLKLKGKPRAAMFNLIPENWGGYVTPWVTEISNNLRQLKSVHFRRMIVSDLDLDRLAKARADDLETLKLDKCSGFTTDGLLSIVTHCRKIKTLLMEESSFSEKDGKWLHELAQHNTSLEVLNFYMTEFAKISPKDLETIARNCRSLVSVKVGDFEILELVGFFKAAANLEEFCGGSLNEDIGMPEKYMNLVFPRKLCRLGLSYMGPNEMPILFPFAAQIRKLDLLYALLETEDHCTLIQKCPNLEVLETRNVIGDRGLEVLAQYCKQLKRLRIERGADEQGMEDEEGLVSQRGLIALAQGCQELEYMAVYVSDITNESLESIGTYLKNLCDFRLVLLDREERITDLPLDNGVRSLLIGCKKLRRFAFYLRQGGLTDLGLSYIGQYSPNVRWMLLGYVGESDEGLMEFSRGCPNLQKLEMRGCCFSERAIAAAVTKLPSLRYLWVQGYRASMTGQDLMQMARPYWNIELIPSRRVPEVNQQGEIREMEHPAHILAYYSLAGQRTDCPTTVRVLKEPI
# B2: JAZ4 in pGADT7 (protein, UniProt Q58G47 1-310)
# chain: MERDFLGLGSKLSPITVKEETNEDSAPSRGMMDWSFSSKVGSGPQFLSFGTSQQETRVNTVNDHLLSSAAMDQNQRTYFSSLQEDRVFPGSSQQDQTTITVSMSEPNYINSFINHQHLGGSPIMAPPVSVFPAPTTIRSSSKPLPPQLTIFYAGSVLVYQDIAPEKAQAIMLLAGNGPHAKPVSQPKPQKLVHHSLPTTDPPTMPPSFLPSISYIVSETRSSGSNGVTGLGPTKTKASLASTRNNQTAAFSMAPTVGLPQTRKASLARFLEKRKERVINVSPYYVDNKSSIDCRTLMSECVSCPPAHHLH
# B3: JAZ10 in pGADT7 (protein, UniProt Q93ZM9 1-197)
# chain: MSKATIELDFLGLEKKQTNNAPKPKFQKFLDRRRSFRDIQGAISKIDPEIIKSLLASTGNNSDSSAKSRSVPSTPREDQPQIPISPVHASLARSSTELVSGTVPMTIFYNGSVSVFQVSRNKAGEIMKVANEAASKKDESSMETDLSVILPTTLRPKLFGQNLEGDLPIARRKSLQRFLEKRKERLVSTSPYYPTSA
# B4: JAZ11 in pGADT7 (protein, UniProt Q9M246 1-238)
# chain: MAEVNGDFPVPSFADGTGSVSAGLDLLVERSIHEARSTEPDASTQLTIIFGGSCRVFNGVPAQKVQEIIRIAFAGKQTKNVTGINPALNRALSFSTVADLPIARRRSLQRFLEKRRDRSTKPDGSMILPSQLTIIFGGSFSVFDGIPAEKVQEILHIAAAAKATETINLTSINPALKRAISFSNASTVACVSTADVPIARRRSLQRFFEKRRHRFVHTKPYSATTSEADKNETSPIVT
# B5: JAZ9 in pGADT7 (protein, UniProt Q8W4J8 1-267)
# chain: MERDFLGLSDKQYLSNNVKHEVNDDAVEERGLSTKAAREWGKSKVFATSSFMPSSDFQEAKAFPGAYQWGSVSAANVFRRCQFGGAFQNATPLLLGGSVPLPTHPSLVPRVASSGSSPQLTIFYGGTISVFNDISPDKAQAIMLCAGNGLKGETGDSKPVREAERMYGKQIHNTAATSSSSATHTDNFSRCRDTPVAATNAMSMIESFNAAPRNMIPSVPQARKASLARFLEKRKERLMSAMPYKKMLLDLSTGESSGMNYSSTSPT
# B6: JAZ7 in pGADT7 (protein, UniProt O64687 1-148)
# chain: MIIIIKNCDKPLLNFKEMEMQTKCDLELRLLTSSYDSDFHSSLDESSSSEISQPKQESQILTIFYNGHMCVSSDLTHLEANAILSLASRDVEEKSLSLRSSDGSDPPTIPNNSTRFHYQKASMKRSLHSFLQKRSLRIQATSPYHRYR
# B7: SPL9 in the JAZ3-SPL9/pBridge construct, expressed from the PMet25 promoter (protein, UniProt Q700W2 1-375)
# chain: T1 sequence
# Molecular target: T1, SQUAMOSA PROMOTER BINDING PROTEIN-LIKE9 (SPL9) fused to GAL4 DNA-binding domain (Arabidopsis thaliana)
# Assay: two-hybrid; yeast AH109; SPLs fused to GAL4 DNA-binding domain (pGBKT7), partners fused to GAL4 activation domain (pGADT7); SD-Leu-Trp-His or SD-Ade-Leu-Trp-His plates with 10 mM (SPL2, SPL3) or 15 mM (SPL9) 3-amino-1,2,4-triazole, 3-4 days at 30 °C
row,Binder,binding
1,B1,no binding
2,B2,binds
3,B3,binds
4,B4,binds

# Molecular target: T2, SPL3 fused to GAL4 DNA-binding domain (Arabidopsis thaliana)
# Assay: as above
row,Binder,binding
1,B2,no binding
2,B3,no binding
3,B4,no binding
4,B5,no binding
5,B6,no binding

# Molecular target: T3, SPL2 fused to GAL4 DNA-binding domain (Arabidopsis thaliana)
# Assay: as above
row,Binder,binding
1,B2,binds
2,B5,binds

# Molecular target: T4, JAZ3 in the JAZ3-SPL9/pBridge construct (Arabidopsis thaliana)
# Assay: yeast three-hybrid; yeast AH109 with JAZ3-SPL9/pBridge and COI1/pGADT7; liquid SD-Leu-Trp-His with 40 μM coronatine and different concentrations of methionine (SPL9 level falls as Met rises)
row,Binder,binding
1,B1,binds
2,B7,binds
